About 6,200 (6.6%) of roughly 94,000 compounds were called active. Inconclusive means that the source gave no clear call. Such entries were picked first, then a sample of the others. Calls come from the whole dose curve; as a rule, active = well fitted inhibition curve with a large enough effect; inconclusive = small, poorly fitted or top-dose-only effect; inactive = flat fitted curve, though single readings scatter. Potencies of inconclusive entries are doubtful fits and often do not repeat.
Assay: Cytotoxic Profiling in HEK 293 Cell Line of Diverse Libraries Using Quantitative High-Throughput Screening; note: nearly all actives have a fitted effect of over 60% in size
Details: HEK 293 viability, ATP luminescence (CellTiter-Glo), 48-72 h; series mostly up to 115 µM
Summary of the method: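 Cells seeded first (HEK 293, 250 cells/well), then compound added by pintool. Incubation ran 48 or 72 hr at 37 degree Celsius. CellTiter-Glo was added and luminescence imaged after 10 min at room temperature.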
In the case of `CC(C)N1CCN(C(=O)C2Cn3cccc3C(=O)N2Cc2cccnc2)CC1` (centres undefined), the Potency is reported as “inactive”.
With `O=C(C1CCCN1C(=O)c1ccc(C(F)(F)F)cc1)N1CCC(N2Cc3ccccc3C2=O)CC1` (centres undefined) the Potency was inconclusive: 56.2 µM [inhibitor, partial curve, poor fit].
With `CCCCCNC(=O)C1CCCN1C(=O)c1cccc(-c2cccc(OC)c2)c1` (centres undefined) the Potency was active: 100 µM.
With `O=c1cc(-c2ccccn2)oc2c(-c3ccccc3F)nccc12` the Potency was inconclusive: 100 µM [inhibitor, partial curve].
With `CN(Cc1cccc(OC(F)(F)F)c1)C(=O)C1(c2ccc(Cl)cc2)CCOCC1` the Potency was inconclusive: 50.1 µM [inhibitor, partial curve, poor fit].
In the case of `COc1ccc(C(=O)N2CCC(n3cc(-c4nc(C(C)C)no4)nn3)CC2)cc1OC`, the Potency is reported as inconclusive: 79.4 µM [inhibitor, partial curve, poor fit].
With `COc1ccc(C(=O)N[C@@H]2CCC[C@@H]2C(=O)NCCCN2CCCc3ccccc32)cc1` the Potency was inconclusive: 89.1 µM [inhibitor, single point].
In the case of `CCc1nc2c(c(-c3ccc(Cl)cc3)n1)CN(Cc1ccc(N(C)C)cc1)CC2`, the Potency is reported as inconclusive: 50.1 µM [inhibitor, partial curve, poor fit].
For `CN(C)c1ccc(CN2CCC3(C2)C(=O)N(C)c2ccccc23)cc1` (centres undefined), the Potency was active: 79.4 µM.
For `O=C(NC1CCCC1)c1cc2cn(C3CC3)cc2s1`, the Potency was inconclusive: 50.1 µM [inhibitor, partial curve, poor fit].
With `COc1cccc(C(=O)N2CCCC(C(=O)N3CCC(c4nc5ncccc5[nH]4)CC3)C2)c1` (centres undefined) the Potency was “inactive”.
With `O=C1CC2(CCN(S(=O)(=O)c3cccc4nsnc34)C2)C(=O)N1` (centres undefined) the Potency was “inactive”.
With `COc1ccc(-c2cc(N3CCN(C(=O)c4cccc(OC)c4OC)CC3)n[nH]2)cc1` the Potency was inconclusive: 50.1 µM [inhibitor, partial curve, poor fit].
In the case of `CCc1noc(-c2cn(C3CCN(C(=O)c4sccc4C)CC3)nn2)n1`, the Potency is reported as “inactive”.
For `CC(=O)N1Cc2ccccc2CC2(CCCCN2Cc2cccnc2)C1` (centres undefined), the Potency was “inactive”.
In the case of `O=C(NC1CC1)c1ccccc1OC1CN(Cc2cccc(F)c2F)C1`, the Potency is reported as inconclusive: 56.2 µM [inhibitor, partial curve, poor fit].
For `COc1ccc(-c2ncc3c(n2)OCCN(c2ccccc2)C3=O)cc1F`, the Potency was “inactive”.
With `CCc1noc(CN2CCOc3c(O)cc(-c4ccccc4C)cc3C2)n1` the Potency was inconclusive: 50.1 µM [inhibitor, partial curve, poor fit].
In the case of `COc1ccc(Cn2c(=O)c(C(=O)N3CCC(C#N)CC3)nc3cccnc32)cc1`, the Potency is reported as “inactive”.
Potency is the fitted concentration of half-maximal effect; tags give direction and shape of the fitted curve.
